Holding throughout (experiment): universal protein binding microarray (PBM)
Settings in all cases: transcription factors of Arabidopsis thaliana; high values mean tight binding; most listed sequences are background and not binding sites; double strand, one strand shown

The target in assay [1] is T1, GST-ANAC019 NAC domain (UniProt Q9C932).
T1 sequence: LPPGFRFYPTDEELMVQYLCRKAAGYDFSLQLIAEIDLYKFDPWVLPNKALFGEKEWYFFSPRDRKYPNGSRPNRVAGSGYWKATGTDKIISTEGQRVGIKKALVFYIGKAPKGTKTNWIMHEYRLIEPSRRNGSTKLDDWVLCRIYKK

The target in assay [2] is T2, GST-ANAC055(1-171) (UniProt Q9LDY8).
T2 sequence: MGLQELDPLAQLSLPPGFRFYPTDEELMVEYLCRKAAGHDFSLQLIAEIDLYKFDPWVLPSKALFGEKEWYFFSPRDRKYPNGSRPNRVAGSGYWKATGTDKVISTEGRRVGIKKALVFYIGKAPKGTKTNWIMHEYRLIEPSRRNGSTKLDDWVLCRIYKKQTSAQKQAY

Assay [3] deals with T3, GST-NTL8 NAC domain (UniProt Q9XIN7).
T3 sequence: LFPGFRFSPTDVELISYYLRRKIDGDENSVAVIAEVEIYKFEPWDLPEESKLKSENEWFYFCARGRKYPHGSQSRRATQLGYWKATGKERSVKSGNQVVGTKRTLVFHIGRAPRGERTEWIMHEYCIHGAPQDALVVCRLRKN

In assay [4] the target is T4, GST-SND1(1-203) (UniProt Q9LPI7).
T4 sequence: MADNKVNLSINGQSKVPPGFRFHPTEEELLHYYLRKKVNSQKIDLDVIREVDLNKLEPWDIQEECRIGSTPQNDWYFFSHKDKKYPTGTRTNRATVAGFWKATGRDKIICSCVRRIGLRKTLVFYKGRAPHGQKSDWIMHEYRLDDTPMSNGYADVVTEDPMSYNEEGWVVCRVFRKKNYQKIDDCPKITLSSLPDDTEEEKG

For assay [5], the target named is T5, GST-VOZ2 (Arabidopsis thaliana) (UniProt Q9SLB9).
T5 sequence: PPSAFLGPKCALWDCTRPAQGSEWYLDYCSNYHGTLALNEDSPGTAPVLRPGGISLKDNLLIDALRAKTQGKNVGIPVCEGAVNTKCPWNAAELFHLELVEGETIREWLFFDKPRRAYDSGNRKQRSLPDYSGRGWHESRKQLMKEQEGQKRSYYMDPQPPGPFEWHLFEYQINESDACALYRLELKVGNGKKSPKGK

The target of assay [6] is GST-WRKY1(266-371) (UniProt Q9SI37).
Assay [7] addresses GST-NTL6(1-168) (UniProt Q9SCK6).
For assay [8], the target named is T6, GST-ANAC092(1-176) (UniProt Q9FKA0).
T6 sequence: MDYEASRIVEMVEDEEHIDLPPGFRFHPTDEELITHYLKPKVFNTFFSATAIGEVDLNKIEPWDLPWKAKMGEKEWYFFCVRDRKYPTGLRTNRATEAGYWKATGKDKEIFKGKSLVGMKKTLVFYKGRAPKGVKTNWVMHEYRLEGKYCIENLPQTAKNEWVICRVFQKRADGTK

The target of assay [9] is T7, GST-NAP(1-166) (UniProt O49255).
T7 sequence: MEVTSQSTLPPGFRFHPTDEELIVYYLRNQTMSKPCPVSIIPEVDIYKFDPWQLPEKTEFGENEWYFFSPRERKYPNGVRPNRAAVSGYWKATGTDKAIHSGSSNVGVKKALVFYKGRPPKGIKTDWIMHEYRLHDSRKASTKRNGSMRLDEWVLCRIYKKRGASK

Assay [10] has as its target T8, GST-NST2(1-184) (UniProt Q9M274).
T8 sequence: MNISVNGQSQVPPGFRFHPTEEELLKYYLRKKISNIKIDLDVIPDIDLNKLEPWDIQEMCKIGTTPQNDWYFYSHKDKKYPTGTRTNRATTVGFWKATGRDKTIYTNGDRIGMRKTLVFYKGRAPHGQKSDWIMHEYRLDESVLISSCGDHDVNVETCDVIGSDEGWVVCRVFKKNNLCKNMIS

Assay [11] has as its target T9, GST-ATAF1 NAC domain (UniProt Q39013).
T9 sequence: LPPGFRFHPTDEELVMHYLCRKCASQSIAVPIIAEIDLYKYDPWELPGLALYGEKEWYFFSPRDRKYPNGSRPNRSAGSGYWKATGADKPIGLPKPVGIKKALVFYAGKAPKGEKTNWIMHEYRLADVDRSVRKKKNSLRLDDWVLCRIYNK

Assay [12] concerns the target T10, GST-ANAC092(1-285) full length (UniProt Q9FKA0).
T10 sequence: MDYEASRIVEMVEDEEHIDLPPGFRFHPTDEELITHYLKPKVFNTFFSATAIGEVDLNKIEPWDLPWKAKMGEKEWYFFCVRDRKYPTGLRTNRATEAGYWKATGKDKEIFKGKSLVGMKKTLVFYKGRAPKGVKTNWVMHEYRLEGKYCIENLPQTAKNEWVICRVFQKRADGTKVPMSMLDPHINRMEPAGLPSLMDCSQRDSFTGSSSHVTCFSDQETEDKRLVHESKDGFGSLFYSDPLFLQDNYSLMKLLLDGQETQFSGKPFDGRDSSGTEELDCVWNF

The entries are a selection whose mix differs from that of the whole data set. For part of these data: At the low end of the ranking the order means little. The list shows a part of the results. For part of these data: The exact form of the protein is not confirmed.

Consider GTGGAGTA, for which the binding signal in [1] was -0.0416 E-score; in assay [2], 0.0843 E-score; in assay [3], 0.0472 E-score; in [4], 0.402 E-score; in assay [5] it was 0.088 E-score; in [6] it was -0.0342 E-score.
As to ACGGCACC, the binding signal is -0.0235 E-score in [7]; -0.0363 E-score in assay [3]; 0.237 E-score in assay [4]; 0.0254 E-score in assay [5]; -0.17 E-score in assay [6].
Take GCACGTAA: the binding signal in [7] was 0.0413 E-score; in assay [2], 0.433 E-score; in assay [3] it was 0.189 E-score; in [4] it was 0.225 E-score; in assay [5], 0.0107 E-score; in assay [6] it was -0.0362 E-score.
For GTACGGCA, the binding signal was 0.395 E-score in assay [8]; -0.0392 E-score in assay [7]; 0.342 E-score in assay [9]; 0.0134 E-score in assay [3]; 0.236 E-score in assay [4]; -0.0553 E-score in [5]. For the same sequence, the binding signal in assay [6] amounted to 0.0953 E-score.
Take ACGTTACG: the binding signal in assay [7] amounted to 0.0351 E-score; in [2] it was 0.299 E-score; in assay [9] it was 0.341 E-score; in assay [3], 0.13 E-score; in [4] it was 0.44 E-score; in assay [5] it was 0.123 E-score. Moreover, the binding signal in assay [6] was 0.0365 E-score.
For the sequence CACGTAAA, the binding signal in assay [2] was 0.414 E-score; in assay [9], 0.35 E-score; in assay [10] it was 0.293 E-score; in assay [3], -0.0171 E-score; in assay [4], 0.289 E-score; in assay [5], 0.118 E-score. The same sequence displayed a binding signal in assay [6] of -0.00432 E-score.
As to ACACGGCT, the binding signal in assay [8] was 0.181 E-score; in [7], -0.161 E-score; in assay [11], 0.264 E-score; in assay [10], 0.0146 E-score; in assay [3] it was -0.0406 E-score; in [4], 0.0366 E-score. Besides, the binding signal in assay [5] is -0.159 E-score; in [6], -0.0991 E-score.
Regarding AATGTCAA, the binding signal in [8] was -0.206 E-score; in assay [7] it was -0.0779 E-score; in assay [1], -0.123 E-score; in [12], -0.0466 E-score; in [9], 0.13 E-score; in assay [10], 0.0715 E-score. The binding signal in assay [3] was -0.0377 E-score; in [4], -0.133 E-score; in assay [5], 0.0651 E-score; in assay [6] it was 0.404 E-score.
Turning to TAAGAAAA, the binding signal in [7] was 0.454 E-score; in assay [1], 0.0133 E-score; in assay [2], 0.129 E-score; in assay [9], -0.0758 E-score; in [10], 0.235 E-score; in assay [4] it was 0.301 E-score. Besides, the binding signal is 0.192 E-score in [5] and -0.012 E-score in assay [6].
Take GAAGGAAC: the binding signal amounted to 0.189 E-score in assay [8]; 0.445 E-score in [7]; 0.172 E-score in assay [2]; 0.148 E-score in assay [9]; 0.249 E-score in assay [10]; 0.337 E-score in assay [4]. Moreover, the results for the binding signal in [5] and in assay [6] were 0.00274 E-score and -0.0458 E-score, respectively.
With TACAGTCA, the binding signal was 0.0408 E-score in assay [8]; 0.00997 E-score in assay [7]; 0.109 E-score in [1]; 0.107 E-score in assay [11]; 0.131 E-score in assay [12]; 0.0375 E-score in assay [9]. In addition, the binding signal in assay [10] came out at 0.0264 E-score; in assay [4], 0.0402 E-score; in [5] it was 0.0539 E-score; in assay [6], 0.404 E-score.
As to CTAAGTTA, the binding signal was 0.393 E-score in assay [7]; 0.0346 E-score in [1]; 0.279 E-score in assay [12]; -0.0635 E-score in assay [9]; 0.282 E-score in assay [10]; -0.00579 E-score in [3]. In addition, the binding signal in [4] is 0.413 E-score; in [5] it was 0.0334 E-score; in assay [6], -0.122 E-score.
Take GCAAGTAA: the binding signal is 0.211 E-score in assay [1]; 0.223 E-score in [10]; 0.352 E-score in [4]; -0.0357 E-score in [5]; -0.0549 E-score in assay [6].
CTTTACGC: the binding signal in assay [7] was found to be 0.00768 E-score; in assay [2], 0.0208 E-score; in assay [11], 0.0445 E-score; in assay [12], 0.302 E-score; in [10] it was 0.193 E-score; in assay [3], 0.0449 E-score. In addition, the binding signal is 0.408 E-score in [4], 0.096 E-score in [5] and -0.00656 E-score in assay [6].
Take ATTACTTA: the binding signal in [7] was determined as 0.49 E-score; in assay [1], 0.0392 E-score; in [2] it was 0.191 E-score; in assay [10] it was 0.296 E-score; in assay [3], 0.31 E-score; in [4] it was 0.38 E-score. Further, the binding signal in assay [5] was 0.183 E-score; in [6], -0.0217 E-score.
Consider ACGCAAGC, for which the binding signal in assay [7] was -0.0626 E-score; in [2], 0.295 E-score; in assay [9] it was 0.294 E-score; in assay [3], 0.0216 E-score; in [4], 0.417 E-score; in assay [5], -0.037 E-score. The binding signal in [6] was -0.0227 E-score.

(Values after PMC4081100.)
